In brackets after ≈: the same amount, converted by molar mass.

5 compounds from ChEMBL document CHEMBL4346735, “Discovery and pharmacological evaluation of indole derivatives as potent and selective RORγt inverse agonist for multiple autoimmune conditions” (Bioorg Med Chem Lett, 2019) can be followed below.

Data set [1] addresses T1, Cytochrome P450 2C9 (Homo sapiens, UniProt P11712). Kind of data set: Inhibition of CYP2C9 in human liver microsomes using diclofenac as substrate preincubated for 5 mins followed by NADPH addition measured after 10 mins by LC-MS/MS analysis.
Another data set deals with Cytochrome P450 2D6 (Homo sapiens, UniProt P10635). Description: Inhibition of CYP2D6 in human liver microsomes using dextromethorphan as substrate preincubated for 5 mins followed by NADPH addition measured after 10 mins by LC-MS/MS analysis.
The target in another data set is Cytochrome P450 2C19 (Homo sapiens, UniProt P33261). Kind of data set: Inhibition of CYP2C19 in human liver microsomes using (S)-mephenytoin as substrate preincubated for 5 mins followed by NADPH addition measured after 40 mins by LC-MS/MS analysis.
A short description of data set [2]: Solubility of the compound at pH 7.4. Particulars: buffer.
In the next data set the target is T2, Cytochrome P450 1A2 (Homo sapiens, UniProt P05177).
T2 sequence (P05177 whole entry): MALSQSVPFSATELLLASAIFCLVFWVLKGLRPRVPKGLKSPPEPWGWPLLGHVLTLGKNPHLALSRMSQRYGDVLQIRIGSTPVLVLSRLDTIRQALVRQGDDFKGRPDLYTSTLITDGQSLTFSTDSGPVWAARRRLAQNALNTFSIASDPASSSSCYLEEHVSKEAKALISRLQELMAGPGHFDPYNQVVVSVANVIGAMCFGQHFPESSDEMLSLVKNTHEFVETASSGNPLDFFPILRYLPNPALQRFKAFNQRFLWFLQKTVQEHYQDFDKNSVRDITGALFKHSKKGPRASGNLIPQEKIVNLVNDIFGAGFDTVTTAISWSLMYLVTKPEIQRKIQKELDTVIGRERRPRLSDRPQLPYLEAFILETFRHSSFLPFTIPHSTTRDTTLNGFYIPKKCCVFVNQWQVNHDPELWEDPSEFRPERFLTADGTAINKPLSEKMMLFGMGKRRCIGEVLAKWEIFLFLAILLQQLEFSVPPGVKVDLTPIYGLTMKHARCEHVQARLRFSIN
Description: Inhibition of CYP1A2 in human liver microsomes using phenacetin as substrate preincubated for 5 mins followed by NADPH addition measured after 10 mins by LC-MS/MS analysis.

A short description of data set [3]: Solubility of the compound at pH 4. As to conditions: buffer.
Data set [4] in a line: Solubility of the compound at pH 2.1. As to conditions: buffer.
Data set [5] deals with T3, Nuclear receptor ROR-gamma (Homo sapiens, UniProt P51449).
T3 sequence (P51449 whole entry): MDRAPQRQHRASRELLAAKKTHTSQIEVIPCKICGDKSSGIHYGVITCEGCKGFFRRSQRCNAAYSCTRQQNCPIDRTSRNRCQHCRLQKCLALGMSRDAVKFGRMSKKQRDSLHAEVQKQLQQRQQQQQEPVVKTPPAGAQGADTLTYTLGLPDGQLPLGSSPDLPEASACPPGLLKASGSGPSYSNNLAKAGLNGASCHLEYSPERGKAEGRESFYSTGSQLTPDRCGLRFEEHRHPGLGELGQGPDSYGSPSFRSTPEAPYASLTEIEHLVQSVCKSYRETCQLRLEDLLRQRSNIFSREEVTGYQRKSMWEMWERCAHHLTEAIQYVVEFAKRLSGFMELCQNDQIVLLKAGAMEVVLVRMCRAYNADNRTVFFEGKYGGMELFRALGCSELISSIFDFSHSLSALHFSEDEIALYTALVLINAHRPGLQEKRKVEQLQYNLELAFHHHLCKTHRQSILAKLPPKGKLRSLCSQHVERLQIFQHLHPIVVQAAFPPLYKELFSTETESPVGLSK
Description: Inverse agonist activity at GST-tagged RORgammat LBD (unknown origin) using fluorescein-D22 co-activator peptide as substrate incubated for 1 hr by TR-FRET assay.

For data set [6], the target named is T3, Nuclear receptor ROR-gamma. Kind of data set: Transactivation of recombinant GAL4-DBD fused RORgammat LBD (unknown origin) expressed in HEK293T cells incubated for 18 to 24 hrs by dual-Glo luciferase assay. The format is cell-based.
The target in data set [7] is T1, Cytochrome P450 2C9.

T1 sequence (P11712 whole entry): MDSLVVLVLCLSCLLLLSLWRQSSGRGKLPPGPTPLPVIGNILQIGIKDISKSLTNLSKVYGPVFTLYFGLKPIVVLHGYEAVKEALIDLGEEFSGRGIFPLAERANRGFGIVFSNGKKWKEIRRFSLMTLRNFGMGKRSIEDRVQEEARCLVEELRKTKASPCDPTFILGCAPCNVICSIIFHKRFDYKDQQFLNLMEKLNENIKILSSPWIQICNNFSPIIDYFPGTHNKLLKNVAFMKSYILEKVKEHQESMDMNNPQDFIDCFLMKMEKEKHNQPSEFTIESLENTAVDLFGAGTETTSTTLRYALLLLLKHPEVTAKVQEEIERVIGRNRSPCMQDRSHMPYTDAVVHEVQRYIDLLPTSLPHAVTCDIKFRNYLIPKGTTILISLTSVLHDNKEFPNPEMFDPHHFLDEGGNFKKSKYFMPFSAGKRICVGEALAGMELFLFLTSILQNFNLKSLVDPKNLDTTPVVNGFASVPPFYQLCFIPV
Cytochrome P450 2D6, sequence (P10635 whole entry): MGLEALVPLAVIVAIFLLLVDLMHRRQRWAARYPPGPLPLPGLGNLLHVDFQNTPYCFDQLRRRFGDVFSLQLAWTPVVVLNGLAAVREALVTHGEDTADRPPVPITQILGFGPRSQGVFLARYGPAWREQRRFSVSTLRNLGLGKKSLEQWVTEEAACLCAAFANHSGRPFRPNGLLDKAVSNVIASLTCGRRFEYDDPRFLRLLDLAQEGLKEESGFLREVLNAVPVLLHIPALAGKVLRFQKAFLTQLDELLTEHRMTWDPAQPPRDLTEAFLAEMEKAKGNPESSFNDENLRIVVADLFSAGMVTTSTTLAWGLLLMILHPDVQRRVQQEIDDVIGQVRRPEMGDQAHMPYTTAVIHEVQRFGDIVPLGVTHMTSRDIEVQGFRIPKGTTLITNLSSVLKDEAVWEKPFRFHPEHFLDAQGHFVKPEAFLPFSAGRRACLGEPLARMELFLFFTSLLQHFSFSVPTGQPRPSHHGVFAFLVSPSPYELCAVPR
Cytochrome P450 2C19, sequence (P33261 whole entry): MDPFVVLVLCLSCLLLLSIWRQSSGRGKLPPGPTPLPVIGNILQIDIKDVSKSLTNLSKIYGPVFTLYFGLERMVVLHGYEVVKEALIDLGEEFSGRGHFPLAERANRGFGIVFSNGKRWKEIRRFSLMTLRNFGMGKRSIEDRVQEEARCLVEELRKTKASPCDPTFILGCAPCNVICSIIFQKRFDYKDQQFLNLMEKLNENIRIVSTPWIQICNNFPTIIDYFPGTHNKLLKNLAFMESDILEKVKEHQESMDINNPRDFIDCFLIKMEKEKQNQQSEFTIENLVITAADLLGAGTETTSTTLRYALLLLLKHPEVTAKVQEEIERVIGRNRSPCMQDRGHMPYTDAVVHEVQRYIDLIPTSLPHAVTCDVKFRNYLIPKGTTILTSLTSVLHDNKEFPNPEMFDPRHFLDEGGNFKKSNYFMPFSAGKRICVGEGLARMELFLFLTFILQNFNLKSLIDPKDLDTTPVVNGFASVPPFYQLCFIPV

With `O=C(O)c1ccc(-n2cc(C(=O)c3c(Cl)cccc3Cl)c3cccc(F)c32)c(F)c1`, the IC50 was 6.4 µM on Cytochrome P450 2C9 [1] and greater than 50 µM against Cytochrome P450 2D6.
Consider `O=C(O)c1ccc(-n2cc(C(=O)c3c(Cl)cccc3C(F)(F)F)c3cccc(F)c32)cc1`, for which the IC50 on Cytochrome P450 2C19 is 23.9 µM; against Cytochrome P450 1A2 it was greater than 50 µM; on Cytochrome P450 2C9 [1] it was 9.9 µM; against Cytochrome P450 2D6, greater than 50 µM. In addition, the solubility is 120 µM (≈ 55.4 µg/mL) in [2], 5 µM (≈ 2.31 µg/mL) in data set [3] and less than 1 µM in data set [4].
Turning to `O=C(O)c1ccc(-n2cc(C(=O)c3c(Cl)cccc3Cl)c3ccccc32)c(F)c1`, the IC50 on Cytochrome P450 2C9 [1] was found to be 5.9 µM; in [5], 0.0011 µM; in data set [6] it was 0.02 µM.
In the case of `O=C(O)c1ccc(-n2cc(C(=O)c3c(Cl)cccc3Cl)c3cccc(F)c32)cc1`, the solubility in data set [2] was 584 µM (≈ 250 µg/mL); in data set [3], 2 µM (≈ 0.856 µg/mL); in data set [4], less than 2 µM. For the same compound, the results for the IC50 against Cytochrome P450 2C9 [7] and on Cytochrome P450 2C9 [1] were greater than 17 µM and 11.1 µM, respectively.
In the case of `O=C([O-])c1ccc(-n2cc(C(=O)c3c(Cl)cccc3Cl)c3cccc(F)c32)cc1.[Na+]`, the solubility was 1450 µM in [2], less than 1 µM in data set [3] and less than 1 µM in data set [4].
